These results are taken from patent publication US9238631B2, “Radiolabeled amino acids for diagnostic imaging” (PIRAMAL IMAGING SA, priority 2011, dated 2016).

The source gives many values for each of these; only a part stands here.

The subject of the series is NCI-H460 tumor. The series is described as follows: In vivo biodistribution in NCI-H460 tumor bearing mice. As for the experimental part: (§1) To test the pharmacokinetic properties of compounds from the present invention, all F18-labeled compounds were examined by biodistribution studies in NCI-H460 tumor bearing mice. Female NMRI (nu/nu) mice were inoculated with 5×10^6 NCI-H460 tumor cells 8 to 10 days before the biodistribution studies. 185 kBq of activity of the fluorinated compound was injected and at least n=3 mice were used for every time point. After injection of the F18-labeled compound, mice were sacrificed at defined time-points. All organs were removed and radioactivity was determined using a γ-counter.
To compare the tumor uptake and retention of radioactivity of different ^18F-labeled derivatives from the present invention, biodistribution studies were performed in NCI-H460 tumor bearing NMRI (nu/nu) mice as described above.
To compare the kidney clearance of several ^18F-labeled derivatives from the present invention, biodistribution studies were performed in NCI-H460 tumor bearing female NMRI (nu/nu) mice as described above. […] After 2 h p.i., less than 1% ID/g can be found in the kidneys.
For comparison of pancreas uptake and clearance of several ^18F-labeled derivatives from the present invention, biodistribution studies were performed in NCI-H460 tumor bearing NMRI (nu/nu) mice as described above. […] After 2 h p.i., less than 2% ID/g can be found in the pancreas.
as §1, with “and” for “for every time point. After injection of the F18-labeled compound, mice were”, “time-points raning from 15 min pi up to 2 h p.i.” for “time-points.”, “γ-counter. […] High tumor uptake values of >3% ID/g were obtained with various compounds from the present invention.” for “γ-counter.”

Consider `N[C@@H](CCC(Cc1ccc(OCC[18F])cc1)C(=O)O)C(=O)O` (stereo partly drawn) [[^18F]-12] [(2S)-2-Amino-5-[4-(2-[^18F]fluoroethoxy)benzyl]hexanedioic acid], for which, for the setting “1 h p.i.”, the “Kidney (% ID/g at 1 h p.i.)” value was 2.2 ± 0.3 % ID/g, the “Liver (% ID/g at 1 h p.i.)” value amounted to 2.2 ± 0.3 % ID/g, the “Pancreas (% ID/g at 1 h p.i.)” value was 3.6 ± 0.6 % ID/g and the “Tumor (% ID/g at 1 h p.i.)” value was 6.5 ± 1.0 % ID/g. Also, for the setting “timepoint 0.25 h”, the “Kidney (% Dosis/g)” value was 18.02 % Dosis/g and the “Lung (% Dosis/g)” value is recorded as 1.45 % Dosis/g. Moreover, under “timepoint 0.5 h”, the “Kidney (% Dosis/g)” value stood at 8.61 % Dosis/g and the “Lung (% Dosis/g)” value is recorded as 0.91 % Dosis/g. Moreover, under “timepoint 1.0 h”, the “Kidney (% Dosis/g)” value is on record as 2.11 % Dosis/g and the “Lung (% Dosis/g)” value is listed as 0.36 % Dosis/g. Further, where the note is “timepoint 2.0 h”, the “Kidney (% Dosis/g)” value worked out at 0.64 % Dosis/g and the “Lung (% Dosis/g)” value worked out at 0.26 % Dosis/g. Further, where the note is “timepoint 4.0 h”, the “Kidney (% Dosis/g)” value was determined as 0.20 % Dosis/g, the “Liver (% Dosis/g)” value came out at 0.33 % Dosis/g and the “Lung (% Dosis/g)” value was 0.13 % Dosis/g.
